The test system of this assay is TYKNU. Put plainly: fractional viability relative to vehicle; TYKNU is a high-grade serous ovarian cancer line; higher = less growth inhibition. To be noted: 72 h. In outline: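 Drug treatment lasted 72 h, with cells grown at 37 °C in 5% CO2 in RPMI 1640 supplemented with 10% FBS. Beforehand, TYKNU control cells or their lentiCRISPRv2 knockout derivatives had been seeded at 500 cells per well into drug-stamped 384-well plates carrying a ~2100-compound library at 2 or 10 μM, in duplicate. Viability came from Cell Titer Glo luminescence, with averaged duplicate treatment wells normalised to duplicate control wells in the same plate position.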

[1] abbreviates: 2uM, genotype: DNM1L knockout (sgDNM1L #1).
[2] abbreviates: 2uM, genotype: sgCTRLA1 (non-targeting control).
Setting [3] is: 10uM, genotype: DNM1L knockout (sgDNM1L #1).
The mark [4] stands for this setting: 10uM, genotype: sgCTRLA1 (non-targeting control).

Molecules are shown by their SMILES. Over roughly 2,000 compounds, “fractional viability relative to vehicle” has its median near 0.91; the lowest 2% begin near 0.045. Some of the results follow.

As for `COc1ccc(COc2ccc(Cc3cnc(N)nc3N)cc2OC)cc1`, the fractional viability is, setting by setting: under setting [1], 0.783; under setting [2], 0.983; under setting [3], 0.675; under setting [4], 0.625.
For `Cc1cc([N+](=O)[O-])ccc1NS(=O)(=O)c1cc(Cl)ccc1Cl`, in that order: 0.83, 0.925, 0.601 and 0.59.
Regarding `O=C(O)CCNc1cc(N2CCc3ccccc3CC2)nc(-c2ccccn2)n1`, the fractional viability is, setting by setting: under setting [1], 0.937; under setting [2], 1.07; under setting [3], 0.854; under setting [4], 0.738.
The like results for `O=C(N/N=C/c1ccc(O)c(O)c1)c1cc2ccccc2cc1O` [Dynasore] were, in that order, 0.705, 0.953, 0.588 and 0.552.
The like results for `C=CC[C@@H]1/C=C(\C)C[C@H](C)C[C@H](OC)[C@H]2O[C@@](O)(C(=O)C(=O)N3CCCC[C@H]3C(=O)O[C@H](/C(C)=C/[C@@H]3CC[C@@H](O)[C@H](OC)C3)[C@H](C)[C@@H](O)CC1=O)[C@H](C)C[C@@H]2OC` [Tacrolimus (FK506)] were, in that order, 0.767, 1.05, 0.47 and 0.85.
`O=C([O-])c1ccccc1O.[Na+]` [Sodium salicylate]: the fractional viability reads like this: under setting [1], 1.08; under setting [2], 1.09; under setting [3], 0.913; under setting [4], 1.03.
For `COc1ccc2[nH]cc(CCNC(C)=O)c2c1` [Melatonin], in that order: 1.13, 1.01, 0.94 and 1.04.
The like results for `Cc1ccc(C(=O)c2cc(O)c(O)c([N+](=O)[O-])c2)cc1` [Tolcapone] were, in that order, 1.04, 0.931, 0.84 and 0.809.
For `CCN(Cc1ccncc1)C(=O)C(CO)c1ccccc1` (stereo unspecified) [Tropicamide], in that order: 0.962, 0.999, 1.02 and 1.04.
Turning to `CC(=O)O/N=C1\C(=O)N(Cc2cc(Cl)ccc2Cl)c2ccc(Cl)cc21`, the fractional viability by setting is: under setting [1], 0.699; under setting [2], 1.05; under setting [3], 0.525; under setting [4], 0.821.
For `Cc1ncc([N+](=O)[O-])n1CCO` [Metronidazole], in that order: 1.24, 1.17, 1.28 and 1.18.
On to `O=C(Cc1cccc(OC(F)(F)F)c1)Nc1ccc(CCCCc2nnc(NC(=O)Cc3ccccn3)s2)nn1`, for which the fractional viability was 0.206 under setting [1], 0.227 under setting [2], 0.19 under setting [3] and 0.0912 under setting [4].
`CCN(CC)CC#CCOC(=O)C(O)(c1ccccc1)C1CCCCC1` (stereo unspecified) [Oxybutynin]: the fractional viability was 1.03 under setting [1], 1.06 under setting [2], 0.774 under setting [3] and 0.996 under setting [4].
For the molecule `CCN(CC)CC#CCOC(=O)C(O)(c1ccccc1)C1CCCCC1` (stereo unspecified) [Oxybutynin chloride], the fractional viability runs as follows: under setting [1], 1.07; under setting [2], 1.07; under setting [3], 0.767; under setting [4], 1.01.
Turning to `CCn1cc(C(=O)O)c(=O)c2ccc(C)nc21` [Nalidixic acid], the fractional viability was found to be 0.85 under setting [1], 1.11 under setting [2], 0.812 under setting [3] and 1.1 under setting [4].
In turn, `COc1ccc(-c2oc3c(CC=C(C)C)c(O[C@@H]4O[C@H](CO)[C@@H](O)[C@H](O)[C@H]4O)cc(O)c3c(=O)c2O[C@@H]2O[C@@H](C)[C@H](O)[C@@H](O)[C@H]2O)cc1` [Icariin] displayed a fractional viability under setting [1] of 1, a fractional viability under setting [2] of 1.06, a fractional viability under setting [3] of 0.803 and a fractional viability under setting [4] of 0.924.
For `COc1ccc2cc(CCC(C)=O)ccc2c1` [Nabumetone], in that order: 0.915, 0.99, 0.818 and 1.
For `O=C(CCCN1CC=C(n2c(=O)[nH]c3ccccc32)CC1)c1ccc(F)cc1` [Droperidol], in that order: 1.11, 1.14, 0.885 and 1.12.
The like results for `CCO[C@@H]1OC(=O)C[C@@H]1NC(=O)[C@@H]1CCCN1C(=O)[C@@H](NC(=O)c1ccc(N)c(Cl)c1)C(C)(C)C` were, in that order, 0.968, 1.18, 0.898 and 1.09.
Turning to `O=C(Nc1cc(C(F)(F)F)ccc1N1CCCCC1)c1ccncc1`, the fractional viability by setting is: under setting [1], 1.01; under setting [2], 1.1; under setting [3], 0.908; under setting [4], 1.05.
The like results for `CCCC[C@@H](C=O)NC(=O)[C@H](CC(C)C)NC(=O)OCc1ccccc1` [Calpeptin] were, in that order, 0.825, 1.01, 0.836 and 0.716.
On to `Cc1ccc(NC(=O)c2ccc(CN3CCN(C)CC3)cc2)cc1Nc1nc(-c2cccnc2)cs1` [Masitinib (AB1010)], for which the fractional viability runs as follows: under setting [1], 1.29; under setting [2], 1.09; under setting [3], 0.779; under setting [4], 0.775.
For the molecule `COc1nc(C)nc(Cl)c1NC1=NCCN1` [Moxonidine], the fractional viability by setting is: under setting [1], 0.917; under setting [2], 1.08; under setting [3], 0.926; under setting [4], 1.1.
The like results for `Cc1ccc(S(=O)(=O)NC(=O)NN2CC3CCCC3C2)cc1` (stereo unspecified) [Gliclazide] were, in that order, 0.92, 1.07, 1.03 and 1.04.
`Cc1cc(Cn2cnc3c2CC(C(=O)O)N(C(=O)C(c2ccccc2)c2ccccc2)C3)ccc1N(C)C` (stereo unspecified): the fractional viability reads like this: under setting [1], 0.819; under setting [2], 1.03; under setting [3], 0.659; under setting [4], 0.918.
For `O=c1c(O)c(-c2cc(O)c(O)c(O)c2)oc2cc(O)cc(O)c12` [Myricetin], in that order: 0.91, 1.03, 0.877 and 0.992.
The like results for `O=c1ncccn1[C@@H]1O[C@H](CO)[C@@H](O)[C@H]1O` [Zebularine] were, in that order, 0.97, 1.06, 0.676 and 0.938.
The like results for `O=C(CCCCCCNC(=O)c1cnc(N(c2ccccc2)c2ccccc2)nc1)NO` [Rocilinostat (ACY-1215)] were, in that order, 0.708, 0.801, 0.34 and 0.29.
As for `NC(CO)(CO)CO` [Trometamol], the fractional viability is, setting by setting: under setting [1], 0.775; under setting [2], 1.1; under setting [3], 0.811; under setting [4], 1.11.
